Assay results taken from the supplement of paper PMC10037445.
The full ranking holds about 2,900 compounds; the median of “IRF Lucia reporter activity, fold change vs agonist alone” is about 0.9, and the highest 2% start at about 2.8. Some of the results follow.

Tests used:
[1] = test system: RAW-Dual; assay: IRF Lucia reporter activity, fold change vs agonist alone; cytotoxicity flag (confluency mask): not cytotoxic; higher = enhanced IRF activity
Method in brief: (§1)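 Library stock was pin-tooled at 50 nL into 384-well plates of RAW-Dual macrophages (50,000 cells/well, DMEM), followed 1 h later by a PRR agonist, and the cells were kept at 37 °C, 5% CO2. Supernatant collected after 20 hours was read for IRF by QuantiLuc luminescence and for NF-κB by QuantiBlue absorbance at 620 nm. Reporter activity is fold change over agonist-alone wells, and a well counted as cytotoxic when its IncuCyte confluency was below 70% of agonist controls in both mask sets.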

[2] = test system: RAW-Dual; assay: IRF Lucia reporter activity, fold change vs agonist alone; higher = enhanced IRF activity; conditions: agonist: MPLA (TLR4) […]
Method in brief: as §1

[3] = test system: RAW-Dual; assay: IRF Lucia reporter activity, fold change vs agonist alone; cytotoxicity flag (confluency mask): cytotoxic (confluency <70% of control); higher = enhanced IRF activity
Method in brief: as §1

[4] = agonist: 3'3'-cGAMP (STING) 10 ug/mL
[5] = library stock concentration (final ~1000-fold dilution): 2 mM, cytotoxicity flag (confluency mask): not cytotoxic
[6] = library stock concentration (final ~1000-fold dilution): 10 mM, cytotoxicity flag (confluency mask): not cytotoxic

CCOC(=O)C1=CC2(CC)CCCN3CCc4c(n1c1ccccc41)C32 (stereo not drawn) (library stock concentration (final ~1000-fold dilution): 2 mM)
IRF Lucia reporter activity [1, 4]: 0.863 | IRF Lucia reporter activity ([1]; agonist: LPS (TLR4) 0.1 ug/mL): 0.956

CCOC(=O)C1=CC2(CC)CCCN3CCc4c(n1c1ccccc41)C32 (stereo not drawn)
IRF Lucia reporter activity [2, 5]: 1.3

CC(C)(C)c1ccc(C(=O)CCCN2CCC(OC(c3ccccc3)c3ccccc3)CC2)cc1
IRF Lucia reporter activity [2, 5]: 1.26

CC(C)(C)c1ccc(C(=O)CCCN2CCC(OC(c3ccccc3)c3ccccc3)CC2)cc1 (library stock concentration (final ~1000-fold dilution): 2 mM)
IRF Lucia reporter activity [1, 4]: 0.24 | IRF Lucia reporter activity ([1]; agonist: LPS (TLR4) 0.1 ug/mL): 1.13

NC(Cc1ccccc1)C(=O)O (stereo not drawn)
IRF Lucia reporter activity ([2]; library stock concentration (final ~1000-fold dilution): 2 mM water, cytotoxicity flag (confluency mask): not cytotoxic): 1.24

NC(Cc1ccccc1)C(=O)O (stereo not drawn) (library stock concentration (final ~1000-fold dilution): 2 mM water)
IRF Lucia reporter activity [1, 4]: 0.937 | IRF Lucia reporter activity ([1]; agonist: LPS (TLR4) 0.1 ug/mL): 0.789

Cc1cc(N=Nc2ccc(S(=O)(=O)Nc3ccccn3)cc2)c(N)cc1O
IRF Lucia reporter activity [2, 6]: 0.329

Cc1cc(N=Nc2ccc(S(=O)(=O)Nc3ccccn3)cc2)c(N)cc1O (library stock concentration (final ~1000-fold dilution): 10 mM)
IRF Lucia reporter activity [1, 4]: 0.382 | IRF Lucia reporter activity ([1]; agonist: LPS (TLR4) 0.1 ug/mL): 0.293

CC1(C)CC1C(=O)N/C(=C\CCCCSCC(N)C(=O)O)C(=O)O (stereo not drawn)
IRF Lucia reporter activity [2, 6]: 1.04

CC1(C)CC1C(=O)N/C(=C\CCCCSCC(N)C(=O)O)C(=O)O (stereo not drawn) (library stock concentration (final ~1000-fold dilution): 10 mM)
IRF Lucia reporter activity [1, 4]: 1.03 | IRF Lucia reporter activity ([1]; agonist: LPS (TLR4) 0.1 ug/mL): 0.852

CCOC(=O)C(CCc1ccccc1)NC(C)C(=O)N1Cc2ccccc2CC1C(=O)O.Cl (stereo not drawn)
IRF Lucia reporter activity [2, 6]: 0.995

CCOC(=O)C(CCc1ccccc1)NC(C)C(=O)N1Cc2ccccc2CC1C(=O)O.Cl (stereo not drawn) (library stock concentration (final ~1000-fold dilution): 10 mM)
IRF Lucia reporter activity [1, 4]: 1 | IRF Lucia reporter activity ([1]; agonist: LPS (TLR4) 0.1 ug/mL): 1.01

COC(=O)Nc1ccc(-c2nc(N3CCOCC3)c3cnn(C4CCN(C(=O)OC)CC4)c3n2)cc1
IRF Lucia reporter activity [2, 6]: 0.843

COC(=O)Nc1ccc(-c2nc(N3CCOCC3)c3cnn(C4CCN(C(=O)OC)CC4)c3n2)cc1 (library stock concentration (final ~1000-fold dilution): 10 mM)
IRF Lucia reporter activity [1, 4]: 0.78 | IRF Lucia reporter activity ([1]; agonist: LPS (TLR4) 0.1 ug/mL): 1.12

CS(=O)(=O)CCNCc1ccc(-c2ccc3ncnc(Nc4ccc(OCc5cccc(F)c5)c(Cl)c4)c3c2)o1.Cc1ccc(S(=O)(=O)O)cc1.Cc1ccc(S(=O)(=O)O)cc1 (library stock concentration (final ~1000-fold dilution): 10 mM)
IRF Lucia reporter activity [1, 4]: 0.264 | IRF Lucia reporter activity ([1]; agonist: LPS (TLR4) 0.1 ug/mL): 3.36

CS(=O)(=O)CCNCc1ccc(-c2ccc3ncnc(Nc4ccc(OCc5cccc(F)c5)c(Cl)c4)c3c2)o1.Cc1ccc(S(=O)(=O)O)cc1.Cc1ccc(S(=O)(=O)O)cc1
IRF Lucia reporter activity [2, 6]: 1.28

Nc1ccc(S(=O)(=O)Nc2cnc3ccccc3n2)cc1
IRF Lucia reporter activity ([2]; library stock concentration (final ~1000-fold dilution): 10 mM water, cytotoxicity flag (confluency mask): not cytotoxic): 1.27

Nc1ccc(S(=O)(=O)Nc2cnc3ccccc3n2)cc1 (library stock concentration (final ~1000-fold dilution): 10 mM water)
IRF Lucia reporter activity [1, 4]: 1.33 | IRF Lucia reporter activity ([1]; agonist: LPS (TLR4) 0.1 ug/mL): 0.922

O=C1C(CCS(=O)c2ccccc2)C(=O)N(c2ccccc2)N1c1ccccc1 (stereo not drawn)
IRF Lucia reporter activity [2, 6]: 1

O=C1C(CCS(=O)c2ccccc2)C(=O)N(c2ccccc2)N1c1ccccc1 (stereo not drawn) (library stock concentration (final ~1000-fold dilution): 10 mM)
IRF Lucia reporter activity [1, 4]: 0.867 | IRF Lucia reporter activity ([1]; agonist: LPS (TLR4) 0.1 ug/mL): 1.38

NC(=O)OCC(COC(N)=O)c1ccccc1 (library stock concentration (final ~1000-fold dilution): 10 mM)
IRF Lucia reporter activity [1, 4]: 0.964 | IRF Lucia reporter activity ([1]; agonist: LPS (TLR4) 0.1 ug/mL): 0.998

NC(=O)OCC(COC(N)=O)c1ccccc1
IRF Lucia reporter activity [2, 6]: 0.976

Cl.Cl.O=C(O)COCCN1CCN(C(c2ccccc2)c2ccc(Cl)cc2)CC1 (stereo not drawn) (library stock concentration (final ~1000-fold dilution): 10 mM)
IRF Lucia reporter activity [1, 4]: 1.07 | IRF Lucia reporter activity ([1]; agonist: LPS (TLR4) 0.1 ug/mL): 0.745

Cl.Cl.O=C(O)COCCN1CCN(C(c2ccccc2)c2ccc(Cl)cc2)CC1 (stereo not drawn)
IRF Lucia reporter activity [2, 6]: 1.01

OC(CC1c2ccccc2-c2cncn21)C1CCCCC1 (stereo not drawn)
IRF Lucia reporter activity [2, 6]: 1.12

OC(CC1c2ccccc2-c2cncn21)C1CCCCC1 (stereo not drawn) (library stock concentration (final ~1000-fold dilution): 10 mM)
IRF Lucia reporter activity [1, 4]: 1.21 | IRF Lucia reporter activity ([1]; agonist: LPS (TLR4) 0.1 ug/mL): 1.18

[O-][n+]1cccc(CO)c1 (library stock concentration (final ~1000-fold dilution): 10 mM)
IRF Lucia reporter activity [1, 4]: 1.12 | IRF Lucia reporter activity ([1]; agonist: LPS (TLR4) 0.1 ug/mL): 1.2

[O-][n+]1cccc(CO)c1
IRF Lucia reporter activity [2, 6]: 1.12

O=C1CCN(c2ccccc2)N1
IRF Lucia reporter activity [2, 6]: 0.925

O=C1CCN(c2ccccc2)N1 (library stock concentration (final ~1000-fold dilution): 10 mM)
IRF Lucia reporter activity [1, 4]: 0.878 | IRF Lucia reporter activity ([1]; agonist: LPS (TLR4) 0.1 ug/mL): 1.27

CCC(=C(c1ccccc1)c1ccc(OCCN(C)C)cc1)c1ccccc1
IRF Lucia reporter activity ([2]; library stock concentration (final ~1000-fold dilution): 10 mM, cytotoxicity flag (confluency mask): cytotoxic (confluency <70% of control)): 1.07

CCC(=C(c1ccccc1)c1ccc(OCCN(C)C)cc1)c1ccccc1 (library stock concentration (final ~1000-fold dilution): 10 mM)
IRF Lucia reporter activity [3, 4]: 0.478 | IRF Lucia reporter activity ([3]; agonist: LPS (TLR4) 0.1 ug/mL): 0.996
